These results are taken from the supplement of paper PMC11417369.

± gives the standard deviation of the averaged measurements. This is one part of the list.

The experiment concerns PfAP2-G AP2 domain (GST-tagged). Nature of the experiment: gcPBM binding intensity (ln(normalized median fluorescence intensity)); higher = stronger DNA binding. Summed up: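 For binding intensity, the highest Masliner-normalised natural-log median intensity across replicate spots of either probe orientation was taken. Protein bound to the array was stained with Alexa488 anti-GST antibody and scanned at 488 nm. The protein, GST-tagged P. falciparum DNA-binding domains from E. coli at about 25 μg on average, had been applied for 1 h to an Agilent 4 × 180k array of primer-extended double-stranded 36-bp intergenic genomic probes and negative controls.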
Regarding “ATTAAGTATATTTCTGCACACAAAAAAAAAAACCAA [CACACA_site9342]”, the “gcPBM binding intensity (ln)” value stood at 10.4 ± 0.38.

For the sequence “TTATTTTTCAATGAAAAGGATTATATATATATATAT [CACACA_negctrl_site757]”, the “gcPBM binding intensity (ln)” value amounted to 10.2 ± 0.7.

Regarding “TTATAATTCTATTATCTGTTCTTTTTATATTTTTTT [CACACA_negctrl_site855]”, the “gcPBM binding intensity (ln)” value was 9.64 ± 0.14.

As for “TTCTAAACACATTGACAAATTAATATATTACAGCAA [GTGCAC_negctrl_site121]”, the “gcPBM binding intensity (ln)” value amounted to 9.93 ± 0.12.

Regarding AAAATTTATAGTATGGTGCATAAAAATATATATATA, the “gcPBM binding intensity (ln)” value was 10.1 ± 0.36.

As to “TATAAGAAAAATAACACACACATAAACATAAATACA [CACACA_site5536]”, the “gcPBM binding intensity (ln)” value amounted to 10.19 ± 0.042.

“AAAAAAAAAAAAAAATGTACATAAAAATGATATAAT [XGTACX_site4096]”: the “gcPBM binding intensity (ln)” value is 11.2 ± 0.49.

Consider “TAAGTTATATGTACTACACACGTACACAAAATAAGA [CACACA_site9237]”, for which the “gcPBM binding intensity (ln)” value worked out at 11.8 ± 1.

Take “ATCCACAAATTAACAAGTACATATATATATATATAT [XGTACX_site1267]”: the “gcPBM binding intensity (ln)” value amounted to 11.3 ± 0.94.

As for “ACAATATATAAAATATGTACATAATATATATAATGA [XGTACX_site8731]”, the “gcPBM binding intensity (ln)” value was found to be 11.2 ± 0.65.

With CCTAATTTTATTAGGGTGCATTTTTAGTTAAATATA, the “gcPBM binding intensity (ln)” value was found to be 10.2 ± 0.37.

“TGATGAAAATTTTTCTGTACAAAAAGTATGAAGGTA [XGTACX_site8901]”: the “gcPBM binding intensity (ln)” value amounted to 11.1 ± 0.51.

In the case of “AATTTAATATAATGCACACATAAAAAAAAATTCAAA [CACACA_site2062]”, the “gcPBM binding intensity (ln)” value was 9.91 ± 0.13.

Regarding “ATGAAAACCATGACGGGTACTCATTTATTATTTTAT [XGTACX_site6724]”, the “gcPBM binding intensity (ln)” value was 11.3 ± 0.79.

With “ATTTATTTGTTTATTTGTTTATTTGTTTATTTGTTT [CACACA_negctrl_site1386]”, the “gcPBM binding intensity (ln)” value turned out to be 9.67 ± 0.057.

As for “ATTGTGTTAATAAAATGTACATTTTCTCTACTTTAA [XGTACX_site1199]”, the “gcPBM binding intensity (ln)” value was 10.8 ± 0.29.

As to “TGTAGAACAAAAAATTGTACATATTTGTAAAAAAAA [XGTACX_site3850]”, the “gcPBM binding intensity (ln)” value amounted to 11.1 ± 0.61.

Take “TATATATATATGTGTAGTACAACAAATATGAAAAAT [XGTACX_site4059]”: the “gcPBM binding intensity (ln)” value was 11.7 ± 0.86.

On to “TTAAGAATCTATACTAGTACATATATGTATACAAGC [XGTACX_site8025]”, for which the “gcPBM binding intensity (ln)” value was found to be 11 ± 0.52.

As for “ATATATATATGTAATAGTACATATGATAGTTTGTCA [XGTACX_site1545]”, the “gcPBM binding intensity (ln)” value is 11 ± 0.74.

As for “ATTAGTTTTATATATAGTACATATAATTTTGAAGGT [XGTACX_site7445]”, the “gcPBM binding intensity (ln)” value came to 11.1 ± 0.77.

As to “ATCCATCTTTTAATTTGTACTTATTCTTTTTTCTTT [XGTACX_site5299]”, the “gcPBM binding intensity (ln)” value was 11.2 ± 0.73.

On to “AAAGATAAATTAAAAAGTACATATTTATTCAATGTA [XGTACX_site8543]”, for which the “gcPBM binding intensity (ln)” value was determined as 11.2 ± 0.71.

As to “TTGTAATTTATTCAAACACACAATTTGGACCTTTTT [CACACA_site1063]”, the “gcPBM binding intensity (ln)” value was determined as 10.3 ± 0.29.

For the sequence “TATTCATAATTTTAATGTACAAAATGGTTTGTAATA [XGTACX_site8493]”, the “gcPBM binding intensity (ln)” value came out at 10.6 ± 0.33.

Regarding “TAAAAAAAACGAACAAGTACACATAAAAAAAAATTA [XGTACX_site5982]”, the “gcPBM binding intensity (ln)” value stood at 11.4 ± 0.86.

“ATTATATCATATATATGTACACATATATAACATGAT [XGTACX_site7]”: the “gcPBM binding intensity (ln)” value is 11.4 ± 0.92.

Turning to “TATGATATATATAATACACACATATACATAAGATCT [CACACA_site1119]”, the “gcPBM binding intensity (ln)” value was found to be 9.98 ± 0.057.

As for “AATATATATATATTATCACACACTCACGTTTGACAA [CACACA_site8130]”, the “gcPBM binding intensity (ln)” value was 9.79 ± 0.16.

Regarding “TTATATATATTTAAAAAAATAACATAAATAAATAAA [CACACA_negctrl_site347]”, the “gcPBM binding intensity (ln)” value amounted to 9.76 ± 0.19.

For the sequence “TTAAATAAAAGGTTTAGTACTTAAAATAAGAAATGA [XGTACX_site6341]”, the “gcPBM binding intensity (ln)” value is 11 ± 0.56.

Regarding “GTAAATATAAACTCAGCACACAAACATATATATGTC [CACACA_site9326]”, the “gcPBM binding intensity (ln)” value is 9.955 ± 0.078.

Take “CACTTTTTTTTTTACTGTACATATACAAATTAAAAA [XGTACX_site1565]”: the “gcPBM binding intensity (ln)” value was found to be 11.4 ± 0.93.

Regarding “TTTTATTTATCTTAATGTACACATTTATATATATAT [XGTACX_site8588]”, the “gcPBM binding intensity (ln)” value worked out at 11.7 ± 1.3.

As for “TATAATAATTAAAAGTGTACTAAATTTTTACATATA [XGTACX_site2523]”, the “gcPBM binding intensity (ln)” value came to 11.3 ± 0.88.

Take “TGGGTGTAGAACAATTGTACTTTGTAAAAATATAAG [XGTACX_site8464]”: the “gcPBM binding intensity (ln)” value stood at 11 ± 0.47.

“TTTTTTTTCAATGGTTGTACAAAGTAAAACAACAAA [XGTACX_site1582]”: the “gcPBM binding intensity (ln)” value was determined as 11.1 ± 0.94.

With “ATAAAATGTTAAGGGTGTACTTTACACATCTCCTAT [XGTACX_site4699]”, the “gcPBM binding intensity (ln)” value turned out to be 11.1 ± 0.67.

As to “TATAAATAAAGCAGTACACACATTTATTTTAGATAC [CACACA_site7566]”, the “gcPBM binding intensity (ln)” value came to 11.3 ± 0.87.

Take “ATAGGGAATTTATGCACACAGTTAAGGGGGAAAATT [CACACA_site5183]”: the “gcPBM binding intensity (ln)” value worked out at 10.8 ± 0.49.

For “TATATTAAATAAAAAGTGCATGTCTCATAAGATGGA [GTGCAC_site9520]”, the “gcPBM binding intensity (ln)” value is 10.1 ± 0.12.

Consider “ATAAACACATCTATATGTACATATATATATATATAC [XGTACX_site347]”, for which the “gcPBM binding intensity (ln)” value turned out to be 11.1 ± 0.68.

As for “ATGTAAATACATATATGTACACAAATATATATATAT [XGTACX_site3537]”, the “gcPBM binding intensity (ln)” value was found to be 11.6 ± 1.1.

For “TATATAAATATACATTGTACTCAACATTTTCATTAA [XGTACX_site3690]”, the “gcPBM binding intensity (ln)” value stood at 11.2 ± 0.85.
